Assay results from PubChem BioAssay AID1346428 (National Center for Advancing Translational Sciences (NCATS), 2018).
Several values for one entry are separate records, joined by “and”; a condition that tells them apart may be missing. Equal entries are not always repeated. In all, about 48,000 compounds went through this assay and about 1,200 (2.5%) were called active. About 2% were inconclusive and are not listed.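 Rule for the calls: active = activation of at least 60% and not above a set upper limit (about 1 call in 100 departs from these limits); inconclusive = activation of 40% to 60%, or above that upper limit; inactive = activation under 40%.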 This is one part of the list.

Molecular target: Probable G-protein coupled receptor 32 (Homo sapiens) (UniProt O75388)
Sequence of UniProt O75388 (O75388 whole entry, looked up): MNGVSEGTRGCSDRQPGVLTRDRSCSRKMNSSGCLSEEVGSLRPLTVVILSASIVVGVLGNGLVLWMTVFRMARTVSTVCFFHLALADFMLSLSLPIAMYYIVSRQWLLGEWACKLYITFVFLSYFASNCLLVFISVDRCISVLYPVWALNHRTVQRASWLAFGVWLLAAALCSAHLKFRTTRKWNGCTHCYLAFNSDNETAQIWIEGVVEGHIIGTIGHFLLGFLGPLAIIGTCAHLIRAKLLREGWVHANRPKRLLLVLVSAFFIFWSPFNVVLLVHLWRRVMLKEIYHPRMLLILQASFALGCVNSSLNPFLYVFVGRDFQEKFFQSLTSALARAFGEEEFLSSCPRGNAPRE
Assay: qHTS for Agonists of Human Resolvin D1 Receptor DRV1; note: 0% is about no effect
Details: CHO-K1 GPR32 beta-arrestin PathHunter luminescence, 90 min; at 76.9 µM; active compounds read high; zero percent set by DMSO-only wells
Summary of the method: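 CHO-K1 cells stably expressing ProLink-tagged GPR32 and Enzyme Activator-tagged beta-arrestin were seeded at 2,500 cells/well overnight, exposed to compounds for 90 min at 37 °C, then read by beta-Gal complementation chemiluminescence after 1 h detection reagent.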

| Structure (SMILES) | activation |
| --- | --- |
| C=CCN1CCc2c(cc(O)c(O)c2Br)[C@@H](c2ccccc2)C1 | inactive: -5.37% |
| Cc1cccc(Cn2c(SCc3ccc(C(=O)NC4CCCCC4)cc3)nc3ccncc32)c1 | inactive: -6.01% |
| COc1ccc(NC(=O)c2c(C)oc3ccc(O)c(CN4CCN(Cc5ccccc5)CC4)c23)cc1 | inactive: -23.9% |
| CCOc1ccc(NC(=O)CCS(=O)(=O)c2ccc(Br)cc2)cc1 | inactive: 1.79% |
| COc1ccc(/C=C(/C#N)c2nc(-c3ccc(Br)cc3)cs2)cc1 | inactive: 14% |
| CCOC(=O)c1ccc(N2C(=O)c3n[nH]c(-c4cccs4)c3C2c2ccc(Cl)cc2Cl)cc1 (stereo not drawn) | inactive: -1.48% |
| Cc1cc(Br)ccc1NC(=O)C1CCN(S(=O)(=O)c2ccc(Br)s2)CC1 | inactive: 25.9% |
| Cc1ccc2c(c1)-c1c(cnn1CC(=O)Nc1ccccc1C#N)CO2 | inactive: -22.7% |
| CCc1ccc(C2=NN(CCC(=O)NCCc3ccc(Cl)cc3)C(=O)CC2)cc1 | inactive: -20% |
| Cc1ccc(C(=O)COC(=O)CCC(=O)Nc2ccc(Oc3cc(C)ccc3C(C)C)cc2)cc1 | inactive: -24.9% |
| CC(=O)N1CCCc2cc(S(=O)(=O)N3CCCC(C(=O)N4CCN(c5cc(C)ccc5C)CC4)C3)ccc21 (stereo not drawn) | inactive: 20.4% |
| Cc1ccc(OC(=O)CSc2nnc(CNC(=O)c3ccccc3)o2)cc1 | inactive: 4.97% |
| CCCn1c2ccccc2c2cnn(CC(=O)NC(CCSC)C(=O)OC)c(=O)c21 (stereo not drawn) | inactive: 10.8% |
| Cc1ccc(CCNC(=O)CCSCc2ccccc2Cl)cc1 | inactive: -12.6% |
| C[C@@H]1C[C@H]2[C@@H]3C[C@H](F)C4=CC(=O)C(Cl)=C[C@]4(C)[C@@]3(F)[C@@H](O)C[C@]2(C)[C@@]1(O)C(=O)CO | inactive: -3.99% |
| CCOC(=O)c1nnc2c(-c3ccc(Cl)cc3)c(C)nn2c1C | inactive: -1.9% |
| Cc1c(C(=O)NCCN(C)C)sc2nc3n(c(=O)c12)CCC3 | inactive: 5.96% |
| Cc1cccc(NC(=O)Cc2csc(COc3cccc(C)c3)n2)c1 | inactive: 1.95% |
| CCOC(=O)Cn1c(=O)n(C2CCCCC2)c2nc(-c3cccc(OC)c3)nc(C(N)=O)c21 | inactive: -0.33% |
| Cc1cc(C)cc(NC(=O)CCc2c(C)nc3c4cccnc4nn3c2C)c1 | inactive: 1.22% |
| Cc1cccc(C(=O)NCC(=O)OCc2cc(=O)n3nc(C4CC4)sc3n2)c1 | inactive: 5.98% |

| Structure (SMILES) | activation |
| --- | --- |
| CCCNC(=O)N1CCN(S(=O)(=O)c2ccc3c(ccn3C)c2)CC1 | inactive: 16.2% |
| COc1cc2c(c(OC)c1)C(c1cc(OC)c(OC)c(OC)c1)CC(=O)N2 (stereo not drawn) | inactive: 11.2% |
| Cc1c2cnn(-c3ccccc3)c(=O)c2c(C)n1CC(=O)NCc1ccccc1 | inactive: 15.2% |
| Cc1ccc(Cl)cc1NS(=O)(=O)c1cc2c3c(c1)CC(=O)N3CCC2 | inactive: -16.4% |
| Cc1cccc(-n2c(SCC(=O)c3ccccc3)nnc2-c2ccc(Br)cc2)c1 | inactive: -7.99% |
| CCOc1ccc(S(=O)(=O)Nc2ccc(-c3ccc(OC)nn3)cc2)cc1 | inactive: -0.739% |
| CCC(Sc1nc2nccnc2c(=O)n1Cc1ccc(C)cc1)C(=O)NC1CCCCC1 (stereo not drawn) | inactive: -19.5% |
| CCc1nn2c(=O)c(S(=O)(=O)Nc3cccc(F)c3)c(C)nc2s1 | inactive: 12.6% |
| CCOC(=O)C1CCCN(S(=O)(=O)c2csc(C(N)=O)c2)C1 (stereo not drawn) | inactive: 0.242% |
| COc1ccccc1N1CCN(C(=O)c2cc3ccc4ccc(C)[nH]c4c3n2)CC1 | inactive: 18.5% |
| CCOc1ccc(-c2cc3nc(C4CCN(C(=O)OC(C)(C)C)CC4)c(C(=O)Nc4ccc(C)cc4C)cn3n2)cc1 | inactive: -10.5% |
| Cc1ccc(CNC(=O)Cn2c(=O)n(-c3cccc(Cl)c3)c(=O)c3sc4ccccc4c32)cc1 | inactive: -19.3% |
| COC(=O)c1ccc(O)cc1 | inactive: 14.8% |
| CC(CNC(=O)CCCn1c(=O)c2cccn2c2cccnc21)c1ccccc1 (stereo not drawn) | inactive: -13.5% |
| O=C(c1ccc(CS(=O)c2ccccc2Cl)o1)N1CCN(c2cccc(Cl)c2)CC1 (stereo not drawn) | inactive: -6.54% |
| Cc1ccccc1Nc1c(-c2ccncc2)nc2ccc(Cl)cn12 | inactive: -26.8% |
| COc1cccc(CNC(=O)c2ccc(NC(=O)N3CC(C)Sc4ccccc43)cc2)c1 (stereo not drawn) | inactive: -16.8% |
| CCOc1cccc2sc(N(CCN(CC)CC)C(=O)c3ccco3)nc12 | inactive: 15.3% |
| CC(C)(C)OC(=O)N1CCC(c2c(C(=O)N3CCN(C(=O)c4ccco4)CC3)cnn2-c2ccccc2)CC1 | inactive: 4.55% |
| COc1ccc(CCNC(=O)c2ccc(CNS(=O)(=O)c3ccccc3)cc2)cc1OC | inactive: 22.5% |
| COc1cc(NC(=O)c2ccc(NC(=O)N3CCSc4ncccc43)cc2)cc(OC)c1 | inactive: -2.88% |

| Structure (SMILES) | activation |
| --- | --- |
| O=C(CSc1cn(CC(=O)N2CCCC2)c2ccccc12)Nc1cc(C(F)(F)F)ccc1Cl | inactive: -6.37% |
| Cc1ccc2nc(Cl)c3cc(C(=O)NC4CCCCCC4)sc3c2c1 | inactive: -15.8% |
| CCC1CN(C(=O)Nc2ccc(C(=O)O)cc2)c2cc(Cl)ccc2O1 (stereo not drawn) | inactive: -23% |
| CCOc1ccc(NC(=O)CN2CCN(c3ccc(Cl)cc3)CC2)cc1 | inactive: -0.0626% |
| COc1ccc(OC)c(CCNC(=O)c2cc3c(=O)n(C)c4ccccc4c3n2C)c1 | inactive: -3.79% |
| O=C(c1cc(F)cc(F)c1)N1CCC(c2nc(-c3ccc(S(=O)(=O)N4CCCC4)cc3)no2)CC1 | inactive: -3.22% |
| COc1ccc(CN(C(=O)Cc2coc3ccc(C)cc23)C2CCS(=O)(=O)C2)cc1 (stereo not drawn) | inactive: -0.254% |
| CCOC(=O)c1cccc(NC(=O)C2CCCN(S(=O)(=O)c3cc(Br)cc4c3N(C(=O)CC)CC4)C2)c1 (stereo not drawn) | inactive: 3.79% |
| CCc1cccc(NC(=O)CCN2C(=O)c3ccccc3Sc3ncccc32)c1 | inactive: -14.2% |
| Cc1cc(=O)n2nc(N(C)CC(=O)NCc3ccc(Cl)cc3)sc2n1 | inactive: 2.49% |
| CCOc1ccc(NC(=O)Cn2c(=O)oc3cc(S(=O)(=O)N4CCC(C)CC4)ccc32)cc1 | active: 117% |
| O=C(NCC1CCN(Cc2ccc(F)cc2)CC1)c1cc2ccc3cccnc3c2[nH]1 | inactive: 6.37% |
| Cc1cc(=O)oc2cc(O[C@@H]3SC[C@@H](O)[C@H](O)[C@H]3O)ccc12 | inactive: -2.87% |
| COc1cc(Cl)c(C)cc1NC(=O)c1cc2c(s1)-c1c(C)cccc1OC2 | inactive: 5.67% |
| O=C(Cn1c(=O)nc(-c2ccccc2)c2cc(Cl)ccc21)NCCc1ccccc1 | inactive: -9.53% |
| Cc1ccc(O)c(-c2n[nH]c3c2C(c2ccccc2F)N(Cc2ccco2)C3=O)c1 (stereo not drawn) | inactive: 13.1% |
| CCC(=O)N1CCc2cc(S(=O)(=O)NC(CC(C)C)C(=O)NCc3ccc(C)cc3)ccc21 (stereo not drawn) | inactive: -4.94% |
| CCc1nn(CC(=O)N2CCN(c3cccc(C)c3C)CC2)c(=O)c2cc3sccc3n12 | inactive: -7.07% |
| COc1cccc(CNC(=O)CCS(=O)(=O)c2ccc3c(c2)CC(C)N3C(=O)C2CC2)c1 (stereo not drawn) | inactive: -14.5% |
| Cc1sc2ncn(CC(=O)N3CCN(c4ccc(F)cc4)CC3)c(=O)c2c1S(=O)(=O)N1CCN(c2ncccn2)CC1 | inactive: -2.8% |
| Cc1cc2[nH]c(=O)c(=O)[nH]c2cc1S(=O)(=O)Nc1cccc(C(F)(F)F)c1 | inactive: -0.845% |

| Structure (SMILES) | activation |
| --- | --- |
| CCn1cc(C(=O)O)c(=O)c2cc3c(cc21)OCO3 | inactive: 3.53% and inactive: 0.199% |
| COc1ccc(OC)c(NS(=O)(=O)c2ccc(Br)s2)c1 | inactive: -33.8% |
| CCOc1ccc(NC(=O)c2oc3ccccc3c2NC(=O)Cc2cccc(C)c2)cc1 | inactive: -28.5% |
| COC(=O)Nc1nc2ccc(S(=O)c3ccccc3)cc2[nH]1 (stereo not drawn) | inactive: 32.8% |
| CN1CCN(CCC(=O)Nc2ccc(Cl)cc2)CC1 | inactive: 13% |
| COc1ccc(C(=O)Oc2ccc(C(c3c(C)[nH][nH]c3=O)c3c(C)[nH][nH]c3=O)cc2OC)cc1 | inactive: -25.5% |
| CC(C)c1ccc(NC(=O)CCNS(=O)(=O)c2cccc3nsnc23)cc1 | active: 75% |
| Cc1cccc(NC(=O)CSc2nc(=O)n(Cc3cccnc3)c3c2CCC3)c1 | inactive: -4.58% |
| COc1ccc(NC(=O)c2c(C)oc3ccc(O)c(CN4CCOCC4)c23)cc1 | inactive: -1.04% |
| Cc1ccc(NC(=O)Cn2c(=O)ccc3cc(S(=O)(=O)N4CCC(C)CC4)ccc32)cc1C | active: 70% |
| CCCN1C(C(=O)c2ccccc2)=C(OC(=O)c2ccc(C)cc2)c2ccccc2S1(=O)=O | inactive: -32% |
| O=C(COc1ccc(Cl)cc1)NCCc1csc(-c2cccc(F)c2)n1 | active: 76.7% |
| COc1cc(NC(=O)c2ncn(-c3ccccc3)n2)cc(OC)c1 | inactive: -10.5% |
| CC(=O)c1ccc(NC(=O)CSc2nccn2Cc2ccc3c(c2)OCO3)cc1 | inactive: -3.38% |
| Cc1cc(SCC(=O)NCc2ccc(F)cc2)nc(=O)[nH]1 | inactive: 1.92% |
| Cn1ncc(C(=O)N2CCN(c3ccccc3F)CC2)c1C1CCN(C(=O)OC(C)(C)C)CC1 | inactive: -16% |
| CCCCN(CC)CCCNC(=O)c1cn(CC)c2ccc(S(=O)(=O)N3CCOCC3)cc2c1=O | inactive: -0.74% |
| COc1ccc(C2N3CC4(C)CN2CC(c2ccccc2)(C3)C4=O)cc1 (stereo not drawn) | inactive: -13.4% |
| CCOc1ccccc1-n1nnc(S(=O)(=O)c2ccc(C)cc2)c1N | inactive: 19.1% |
| Cc1ccc(NC(=O)CSc2nc(-c3ccco3)cc(C(F)(F)F)n2)cc1C | inactive: -7.16% |
